Assay results published in US20170319611A1, “METHODS AND COMPOSITIONS COMPRISING AKT INHIBITORS AND/OR PHOSPHOLIPASE D INHIBITORS” (Vanderbilt University, priority 2012, published 2017).

What was measured:
[1] = system: LC3 and p62; test: Autophagy marker immunoblot (LC3-II, p62), U87MG cells; format: cell-based, human; conditions: overnight, serum-free DMEM, 10 μM EVJ, 5 μM JWJ, 10 μM MK2206
Description: Lysates were prepared by incubating cell pellets in lysis buffer (see immunoprecipitation procedure) for 30 minutes at 4° C. Protein concentrations were measuring using the Bio-Rad protein assay reagent. The antibodies used in the various studies as described herein, along with their vendors and catalog numbers are provided in Table 3.
In addition to apoptosis, cells undergo another type of programmed cell death requiring autophagy (Tsujimoto and Shimizu, (2005) Cell Death Differ. 12 Suppl 2, 1528-1534), a process known to be stimulated by nutrient or growth factor deprivation (Kroemer, G. et al., (2010) Mol. Cell 40, 280-293). Autophagy is a multistep process involving formation of double-membrane autophagosomes that engulf cytosolic components and deliver cargo to lysosomes for digestion and nutrient recycling (Ravikumar, B. et al., (2009) J. Cell Sci. 122, 1707-1711). In order to determine if autophagy was perturbed following PLD or Akt inhibitor (MK2206) (Hirai, H. et al., (2010) Mol. Cancer Ther. 9, 1956-1967) treatment, the expression levels of the well-characterized autophagy makers microtubule-associated protein 1A/1B-light chain 3 (LC3) and p62 were measured. Autophagasome number is frequently assessed by measuring conversion of cytosolic LC3-I to a membrane-associated, lipidated LC3-II which is readily measureable as a faster migrating species of LC3 during SDS-PAGE (Kabeya, Y. et al., (2000) EMBO J. 19, 5720-5728). The other marker, p62, is an LC3 and ubiquitin-binding protein, involved in the regulation of protein aggregates and is degraded by autophagy (Komatsu, M. et al., (2005) J. Cell Biol. 169, 425-434). Induction of autophagy and successful degradation of autophagosomes would thus be accompanied by a decrease in p62 levels. […] Fold change in immunoreactivity relative to vehicle control. ANOVA with Dunnett's post-hoc test was used to compare inhibitor treatment to vehicle control (**p<0.01).
To conclusively determine that flux, rather than autophagosome initiation, is regulated by PLC, LC3-II conversion in the presence of the lysosomal proton pump inhibitor bafilomycin A1, which prevents autophagosome fusion to lysosomes and inhibits degradation of autophagosomes, was measured. Thus, bafilomycin A1 is commonly used to discriminate the effects of a compound on autophagy initiation versus flux by assessing LC3-II levels in the presence of a test compound after clamping degradation of autophagosomes (Yamamoto, A. et al., (1998) Cell Struct. Funct. 23, 33-42).

[2] = system: LC3; test: Autophagy marker immunoblot, HEK293-TREx cells; format: cell-based, human; conditions: overnight, serum-free DMEM, 10 μM EVJ, 5 μM JWJ, 10 μM MK2206
Description: To determine if the effects on autophagy following PLD inhibition were cell-type specific, LC3/p62 levels between U87MG cells and HEK293 cells were examined. […] However, the levels of LC3 and p62 under basal conditions were much higher in the U87MG cells.

[3] = system: LC3; test: Tandem-fluorescent LC3 (GFP/RFP) imaging, U87MG stable cells; format: cell-based, human; conditions: tf-LC3 U87MG, overnight, serum-free DMEM; 10 μM EVJ, 5 μM JWJ, 10 μM MK2206
Description: Glass coverslips were flame sterilized and placed into 6-well plates. U87MG-tfLC3 cells were seeded at 150,000 cells/well in complete media and allowed to adhere overnight. The following day, cells were washed and treated with inhibitors in serum-free DMEM for 24 h. Cells were washed in 1×PBS then fixed for 15 minutes in 2% paraformaldehyde followed by washing in PBS. Coverslips were removed and mounted onto glass slides in Vectashield mounting media containing DAPI (Vector Labs). GPF/RFP images were acquired using Nikon AIR laser scanning confocal microscope equipped with a Plan Apo VC 60× 1.4 N.A. and 40× oil immersion lens.
This reporter system consists of a red fluorescent protein (RFP) and a green fluorescent protein (GFP) fused to LC3. As autophagosome numbers increase, either due to increased autophagy initiation or decreased degradation, fluorescence intensity increases as LC3 clusters on autophagosome membranes. Unlike RFP, GFP is quenched by low pH and LC3 present in lysosomes should predominantly emit an RFP signal. […] The tF-LC3 U87MG cells were treated with PLD or Akt inhibitors overnight, fixed, and imaged for GFP and RFP signals. Under vehicle treated conditions, numbers of LC3 puncta were low and predominantly visualized with the pH-insensitive RFP tag, indicative of functional autophagy.

[4] = system: mTOR; test: mTOR activity (p70S6-kinase phosphorylation), U87MG cells; conditions: overnight, 10 μM EVJ, 5 μM JWJ, 10 μM MK2206
Description: (§1) After establishing that PLD and Akt promote autophagic flux, the molecular mechanism was investigated. The mammalian target of rapamycin (mTOR) pathway suppresses autophagy under nutrient rich conditions and PLD has been implicated as an upstream positive regulator of mTOR (reviewed in Foster, D. A. (2009) Biochim. Biophys. Actas 1791, 949-955). […] Referring to FIG. 22A, U87MG cells were treated overnight with 10 μM EVJ, 5 μM JWJ, 10 μM MK2206, or 1 μM mTOR inhibitor Torinl. Cells were immunoblotted for total and phosphorylated p70S6K1. […] Beclin1 is a component of the core autophagy complex (Liang, X. H. et al., (1999) Nature 402, 672-676) and exists in multiple protein complexes during progressive stages of autophagy (Kihara, A. (2001) EMBO Reports 2, 330-335). […] Band intensities of Rubicon and Beclin1 were determined and the ratio of Rubicon to Beclin1 was calculated for each sample. Fold changes in this ratio were calculated by comparing inhibitor conditions to the vehicle treated conditions within the wild-type or S295A Beclin1 groups (n=4, **p<0.01, ANOVA with Dunnett's post-hoc test, error bars=SEM). To address whether the interaction of Rubicon with Beclin1 was mediated by Akt phosphorylation, the two putative Akt phosphorylation residues on Beclin1, serine 234 and serine 295 (Wang, R. C. et al., (2012) Science 338, 956-959), were mutated and Rubicon binding assessed. […]

[5] = system: Beclin1/Rubicon complex; test: Rubicon co-immunoprecipitation with HA-Beclin1, U87MG cells; conditions: 6 h, serum-free DMEM; for binding of Rubicon to S295A mutant of Beclin1: S295A HA-Beclin1, 10 μM; for Rubicon co-immunoprecipitated with Beclin1: wild type HA-Beclin1, 10 μM
Description: Cells were scraped in ice-cold PBS then centrifuged at 1,000 g for 5 minutes to pellet cells. Cells were lysed by suspension in lysis buffer (50 mM Tris pH 8.0, 15 0 mM NaCl, 0.5% NP-40, 40 mM beta-glycerophosphate, 20 mM sodium pyrophosphate, 1 mM Na3VO4, 2 mM EDTA, 2 mM EGTA, 5 mM NaF, 1 mM DTT, and Roche complete protease inhibitor cocktail) and then subjected to 3 freeze/thaw cycles in dry ice/ethanol. Between each thaw cycle, lysates were drawn up and down through 25G syringe needles. Lysates were clarified by centrifugation at 10,000×g for 10 minutes at 4° C. In order to remove non-specific proteins, lysates were incubated with protein-G agarose (Millipore) for 2 h at 4° C. Beads were removed by centrifugation at 1,000×g for 1 min. Supernatants were transferred to new tubes and immunoprecipitating antibodies were allowed to incubate with pre-cleared lysates overnight at 4° C. Antibodies were captured using protein-G agarose for 2 h. Beads were washed 3× in lysis buffer containing 300 mM NaCl and complexes eluted by boiling in 2×SDS-PAGE loading buffer. For immunoprecipitation of endogenous proteins, normal IgG (Santa Cruz) was used as a nonspecific control.
as §1

| SMILES | LC3-II conversion [1] | p62 levels [1] | LC3-II conversion [2] | LC3 localization (GFP/RFP puncta) [3] | mTOR activity / p70S6-kinase phosphorylation [4] | binding of Rubicon to S295A mutant of Beclin1 [5] | Rubicon co-immunoprecipitated with Beclin1 [5] |
| --- | --- | --- | --- | --- | --- | --- | --- |
| NC1(c2ccc(-c3nc4ccn5c(=O)[nH]nc5c4cc3-c3ccccc3)cc2)CCC1 [MK2206, reference compound] | robustly induced LC3-II conversion | increased p62 levels | increased LC3-II conversion in both cell types | induced a robust relocalization of cytosolic LC3-I to large fluorescent puncta | diminution of mTOR activity | failed to increase binding of Rubicon to the S295A mutant of Beclin1 | increased the amount of Rubicon that co-immunoprecipitated with Beclin1 |
| O=C(NCCN1CCC2(CC1)C(=O)NCN2c1cccc(F)c1)c1ccc2ccccc2c1 [No. 1, N-(2-(1-(3-fluorophenyl)-4-oxo-1,3,8-triazaspiro[4.5]decan-8-yl)ethyl)-2-naphthamide] | robustly induced LC3-II conversion | increased p62 levels | increased LC3-II conversion in both cell types | induced a robust relocalization of cytosolic LC3-I to large fluorescent puncta | – | failed to increase binding of Rubicon to the S295A mutant of Beclin1 | increased the amount of Rubicon that co-immunoprecipitated with Beclin1 |
| C[C@@H](CN1CCC(n2c(=O)[nH]c3cc(Br)ccc32)CC1)NC(=O)[C@@H]1C[C@@H]1c1ccccc1 [No. 2, (1R,2S)—N-((S)-1-(4-(5-bromo-2-oxo-2,3-dihydro-1H-benzo[d]imidazol-1-yl)piperidin-1-yl)propan-2-yl)-2-phenylcyclopropane carboxamide] | robustly induced LC3-II conversion | increased p62 levels | increased LC3-II conversion in both cell types | induced a robust relocalization of cytosolic LC3-I to large fluorescent puncta | – | – | – |
